Laboratory results: US20230312722A1 (NONA BIOSCIENCES SUZHOU, published 2023)

Molecular target: T1, human B7H4 on the cell surface (human, UniProt Q7Z7D3 25-282)
T1 construct: whole, on cells; also called CHOK1/hu B7H4; B7H4 on SK-BR-3
T1 sequence (looked up): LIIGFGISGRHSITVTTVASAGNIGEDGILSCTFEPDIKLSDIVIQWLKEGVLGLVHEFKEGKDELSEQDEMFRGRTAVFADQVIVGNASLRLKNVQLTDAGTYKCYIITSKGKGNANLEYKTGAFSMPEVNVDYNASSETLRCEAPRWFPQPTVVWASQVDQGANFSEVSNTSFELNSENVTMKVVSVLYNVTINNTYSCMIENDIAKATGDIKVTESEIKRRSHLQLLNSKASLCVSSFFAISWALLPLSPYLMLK
Assay: FACS on SK-BR-3 cells
Procedure: SK-BR-3 cells were digested. T cells were isolated using the human T cell isolation kit (Miltenyi, #130-096-535) as described in the method of the instruction, and resuspended with PBS containing 2% BSA. The cell density was adjusted to 1×10⁶ cells/mL. The cells were seeded in a 96-well V-bottom plate (Corning, #3894) at 100 μL/well, followed by the addition of test antibodies diluted in a 3-fold gradient at a concentration that was 2 times the final concentration, each at 100 μL/well. The cells were incubated at 4° C. for 2 h away from light. Thereafter, the cells in each well were rinsed twice with 100 μL of pre-cooled PBS containing 2% BSA, and centrifuged at 500 g at 4° C. for 5 min, and then the supernatant was discarded. Then each well was added with 100 μL of fluorescent secondary antibody (Alexa Fluor 488-conjugated AffiniPure Goat Anti-Human IgG, Fcγ Fragment Specific, Jackson, #109-545-098, diluted in a 1:500 ratio), and the plate was incubated away from light at 4° C. for 1 h. The cells in each well were washed twice with 100 μL of pre-cooled PBS containing 2% BSA, and centrifuged at 500 g at 4° C. for 5 minutes, and then the supernatant was discarded. Finally, the cells in each well were resuspended with 200 μL of pre-cooled PBS containing 2% BSA, and the fluorescence signal values were read using an ACEA Novocyte3000 flow cytometer.

EC50: 26.2 nM
Maximum MFI: 246000
B1: PR003366 (Fc fusion)
scFv-Fc chain: EIVMTQSPASLSVSPGERATLSCRASQSVSSNLAWYQQKPGQAPRLLIYGASTRATGIPARVSGGGSGTEFTLTISSLQSEDFAVYYCQQYKNWPFTFGPGTKLEIKGGGGSGGGGSGGGGSGGGGSQVQLVQSGAEVKKPGSSMRVSCKASEDTFSSYAISWVRQAPGQGLEWMGGTAPIFGTTNYAQKFQGRVTITADKSTSTAYMELSSLRSEDTAVYYCARGGPYFDYWGQGTLVTVSSGGGAS[human IgG1 Fc not written out]
notes: also called PR003366 (αB7H4 scFv-Fc)
